Assay results as given in PubChem BioAssay (NCI).
A structure can be active in one record and inactive in another.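 Negative percent growth values reflect cell death: -40 means 40% of the cells present at the start died, and -100 means all died.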 Not every entry of the source has a single result; some have several. They are shown here; other results are not. Rule for the calls: active = growth percent below 10; inactive = the rest. There may be further records. These are repeated runs of one drug, at its own concentration, as given; one value stands for one run. Counts like (3×) count equal records among those shown.

Tests used:
Assay in all cases: NCI-60 one-dose screen, 48 h (100 = growth as untreated, 0 = no growth, -100 = all killed)
SK-MEL-2 melanoma = details: 2.5 mM
EKVX NSCLC = details: 2.5 mM
SN12C renal = details: 2.5 mM; runs of 1991

O=c1[nH]cc(F)c(=O)[nH]1
growth (SK-MEL-2 melanoma; runs of 1997): inactive: 50.4, 15.9, 18, 64.1, 45.7, 30, 65.3, 45.1 (2×), 35.8, 37.6, 50.9, 42.7, 40.4, 44.7, 31.1, 44.5, 64.6, 25.4, 44.6, 17.1, 54.5, 44.1, 18.3, 33.9, 12.6, 28.3, 18.6, 51.7, 24, 33.1, 34.7, 48.1, 66.4, 35.6, 50.3, 51.9, 47.1, 37.8, 41.9, 40.6% and active: 7.02%, -28.1%, 7.47%
growth (SK-MEL-2 melanoma; runs of 1998): inactive: 38.1, 54 (2×), 47.9, 44.3, 19, 26.8, 51.8, 19.6, 42, 56.6, 63.2, 49, 46.5, 49.4, 33.2, 34.6, 40.6% and active: 1.45, 8.74, -0.394, -15%
growth (SK-MEL-2 melanoma; runs of 1999): active: 6.87, -17.1, -30.7, -15.9, -19.4, 0.761, -62.2, -0.215, -63.8, -53.7, -50.4, -55.7, -44.2, -64.9% and inactive: 54.6, 51.1, 46.3, 26%
growth (SK-MEL-2 melanoma; runs of 2000): active: -54.5, -42.3, -3.37, -56%
growth (EKVX NSCLC; runs of 1991): inactive: 29.7, 50.9, 58.7, 64.2, 53.2, 57.3, 34.2, 37.8, 33.1, 46.7, 51.4, 25.1, 50, 28.9, 43, 44.6, 42, 57.7, 63.8%
growth (EKVX NSCLC; runs of 1992): inactive: 55.5, 45.9, 53.6, 79, 53.5 (2×), 43.6, 56.3, 37.6, 51.9, 33.2, 50.7 (3×), 41.6 (2×), 38, 43.7, 51, 37.4, 44.1, 63.2, 16.5 (2×), 64, 46.8, 72.3, 41.5, 20.8, 49.3, 45.3, 50.3, 51.3, 40.3, 47.1, 67.4, 75.2, 28.2, 63.6, 72.8, 58.2, 62.6, 91.2, 66.8, 61.7, 42.5, 65.5, 26.7, 49.1, 49.6, 52.6, 47.8, 54.8, 52.4, 66.7, 64.9, 127, 31.8, 38.9, 40.7, 50, 49.4, 51.4, 49.5, 40.1, 61.5, 84.4, 65.8, 93.1, 63.5, 26.8, 26.1, 24.7, 29.3, 44.5, 42.8, 64.4, 54.9, 55.2 (2×), 62.2, 59.8, 77.4, 50.1, 49, 70.9, 56.4, 38.8, 45.7 (2×), 45.4, 48, 40.8, 42.7, 53.1, 48.4, 50.8, 71.6, 31.9, 41.1, 101, 56.5, 43.1, 41.3, 57.4, 37.8, 36.7, 38.6, 68.7, 44.6, 36% and active: -27.1%, -54.9%
growth (EKVX NSCLC; runs of 1993): inactive: 43.4, 41.9, 19, 48.3, 85.8, 47.1 (2×), 68.6, 24.8, 46.9, 78.9, 57.8, 61.9, 71.1, 35.3, 39.6, 48.8, 44.7, 54.2, 56.7, 49.9, 46.5, 33.5, 63.8, 42, 42.7, 23.7, 56.5, 57.7, 26.6, 34, 45.8 (2×), 40.3, 72.5, 99.2, 53.1, 27.7, 50.4, 59.9, 47.5, 61.6, 49.4%
growth (EKVX NSCLC; runs of 1994): inactive: 51.8, 32.6, 52.7, 61.8, 62, 34.8, 59.7, 63, 44.5, 23.6, 45.4, 39.7, 63.6, 37.2, 50.7, 26.5, 55, 53.4, 61.1, 43, 54.5, 37, 52.8, 44.1, 59, 53.2, 37.5, 48.2, 33.5, 52.5%
growth (EKVX NSCLC; runs of 1995): inactive: 45.2, 35.3, 47.8, 47.6, 30.7, 61.9, 63.2, 34.2, 49.9 (2×), 48.6, 43.1, 48, 45.6, 51.5, 58, 60.9, 40.6, 70.6, 26.1, 53.3, 49, 50.2, 55.8, 40.5, 33.5, 62.9, 31.6, 32.2, 44.6, 38.3, 62.2, 50.3, 42.1, 36.2, 47.3, 72.6%
growth (EKVX NSCLC; runs of 1996): inactive: 30.1, 15.2, 57.8 (2×), 18.4, 53.3, 51.9, 37.6, 53.6, 42.5, 35.6, 47.2, 39.8, 42.4, 46.1, 40.9, 35.7, 49.6, 51, 29.4, 47.3, 58.1 (2×), 42, 44.5, 50, 46.6, 29.6, 51.4, 39.5, 26.8, 43.1 (2×), 31.6, 42.2, 46.9, 31, 34.5, 43.2, 42.8, 47, 47.5, 44.2, 76.3, 48.2, 32.4, 41.5, 46.2, 45.2, 65, 68.7, 74.9, 68.1, 63.5, 56% and active: 9.72%, 4.01%, 9.41%
growth (EKVX NSCLC; runs of 1997): inactive: 39.9 (3×), 55, 44.9, 59.7, 48.1, 65.9, 26.3, 36.2, 44, 46.1, 44.2, 63.1, 61.1, 57.3, 41.8, 45.2, 51.8, 47.1, 47.5, 53.6, 47.8, 58.1, 66.6, 55.9, 28.8, 40.8, 26.6, 48.9, 24.2, 76.8, 109, 41.5, 38.6, 31.6, 29.7, 35.6, 36.5, 32.9, 30.6% and active: -3.58%, 9.99%
growth (EKVX NSCLC; runs of 1998): inactive: 62.8, 47.1, 77.1, 25.6, 58.5, 46.4, 50.2, 52.7, 46.8, 56.9, 65.1, 15.8, 28.6, 30.5, 40.8, 33.7, 50.3% and active: -28.1, 9.08, -6.61, -11.6, -4.23, -4.71%
growth (EKVX NSCLC; runs of 1999): inactive: 13.2, 37.7, 19.5, 36.2, 17.2, 50.3% and active: -31.7, 2.46, 1.23, 0.433, -100%
growth (EKVX NSCLC; runs of 2000): active: -86.6%, -23%, -19%
growth (SN12C renal): inactive: 40.9, 35.2, 36, 43.4, 39.9, 32.9 (2×), 33.2, 20.8, 25, 26.3, 38.2, 37.2, 33.9, 31.9, 29.3 (2×), 32.6, 83.2, 32.2%
